Test system: influenza virus, A2 Hong Kong strain
Design: species or system influenza virus A2 Hong Kong (mice)
Conditions: mouse, in vivo

Compound	changes in weight and systemic condition of mice vs amantadine or cyclooctylamine	development of viral pneumonia in infected mice
Cc1c(C2=CCC(C)CC2C(C)C)cc(C(C)C)c(O)c1S(=O)(=O)O (stereo not shown) [LJ 2128, m.menthene-thymol-2-sulfonate]	more satisfactory	prevents the development of viral pneumonia
CC1CC=C(c2ccc(O)c(S(=O)(=O)O)c2)C(C(C)C)C1 (stereo not shown) [LJ 2148, sodium m.menthene-phenol-2-sulfonate]	more satisfactory	prevents the development of viral pneumonia

Reference: US4054669A, “Phenolic menthene derivatives, therapeutic composition containing same and their use as therapeutic compositions” (Les Derives Resiniques et Terpeniques, priority 1975, dated 1977)
